{"source": "PubChem BioAssay AID624171", "about": "(National Center for Advancing Translational Sciences (NCATS), 2012)", "note": "Hit rate of the full screen: of about 410,000 compounds, about 1,200 (0.29%) were called active. This list was built around the results that the source calls inconclusive (neither active nor inactive); the mix of calls is not that of the screen. Calls come from the whole dose curve; as a rule, active = well fitted activation curve with a large enough effect; inconclusive = small, poorly fitted or top-dose-only effect; inactive = flat fitted curve, though single readings scatter. Potencies of inconclusive entries are doubtful fits and often do not repeat. Potency is the fitted concentration of half-maximal effect; tags give direction and shape of the fitted curve."}
{"test": "qHTS of Nrf2 Activators; note: nearly all actives have a fitted effect of over 65% in size; for activation: % of control where 0% means no effect", "settings": "AREc32 ARE-luciferase reporter (MCF7-derived line), luminescence, 24 h; activation: at 46.1 µM (top of the series)", "how_it_was_run": "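For detection, Steady-Glo was added and plates sat 30 min at RT; before that, AREc32_Fluc cells grown overnight in OPTI-MEM/5% FBS had been treated with 23 nL compound for 24 hr at 37 deg C.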"}
{"compound": "C/C(=N\\NC(=O)c1c[nH]c2ccccc12)c1ccco1", "Potency": "inconclusive: 2.51 µM [activator, full curve]"}
{"compound": "O=C1OC(/C(=C\\NCc2ccccc2)[N+](=O)[O-])c2ccccc21", "note": "(configuration not stated)", "Potency": "inconclusive: 17.8 µM [activator, single point]"}
{"compound": "O=C(Nc1ccccc1Cl)Nc1cccc2cccnc12", "Potency": "active: 12.6 µM"}
{"compound": "O=C(CSc1nnc(-c2cccc(F)c2)c(-c2cccc(F)c2)n1)NC1CCCCC1", "Potency": "inactive"}
{"compound": "COc1ccc(C2C(C(C)=O)=C(O)C(=O)N2c2nccs2)cc1OC", "note": "(configuration not stated)", "Potency": "inactive"}
{"compound": "CSc1nsc(/C=C/Nc2cccc(Cl)c2)c1C#N", "Potency": "inconclusive: 14.1 µM [activator, partial curve, poor fit]"}
{"compound": "COc1ccc(OCc2nc3ccccc3n2Cc2ccccc2Cl)cc1", "Potency": "inactive"}
{"compound": "Cc1nc2nc(-c3cccs3)[nH]c2cc1Br", "Potency": "inconclusive: 4.47 µM [activator, partial curve]"}
{"compound": "O=C1N/C(=N\\N=C\\c2ccco2)SC1Cc1ccc(F)cc1", "note": "(configuration not stated)", "Potency": "inconclusive: 2.82 µM [activator, partial curve, poor fit]"}
{"compound": "O=C1/C(=C/N(C(=O)c2ccco2)c2ccc(Cl)cc2)Sc2ccccc21", "Potency": "inconclusive: 10 µM [activator, partial curve, poor fit]"}
{"compound": "O=C(/C=C/c1ccccc1Cl)NNC(=O)c1cccs1", "Potency": "inconclusive: 12.6 µM [activator, single point]"}
{"compound": "CCc1cnc2c(c1SCC(=O)c1ccccc1)c(=O)n(C)c(=O)n2C", "Potency": "inconclusive: 15.8 µM [activator, single point]"}
{"compound": "O=C(NCc1ccco1)/C(=C/c1cccc(C(F)(F)F)c1)c1nc2ccccc2[nH]1", "Potency": "inconclusive: 12.6 µM [activator, single point]"}
{"compound": "Cc1ccc(Sc2c([N+](=O)[O-])ncn2C)cc1", "Potency": "inconclusive: 25.1 µM [activator, single point]"}
{"compound": "OCCC1CN(C2CCN(c3ccccc3F)CC2)CCN1Cc1ccccc1", "note": "(configuration not stated)", "Potency": "inactive"}
{"compound": "O=C(/C=C/[C@H]1O[C@@H](n2cnc3c(NC(=O)c4ccccc4)ncnc32)[C@H](O)[C@@H]1O)NCc1ccc2c(c1)OCO2", "Potency": "inactive"}
{"compound": "O=c1c2ccccc2ncn1/N=C/c1ccccc1", "Potency": "inconclusive: 3.55 µM [activator, full curve, poor fit]"}
{"compound": "C=C(C)C(=O)Nc1nnc(-c2ccccc2C)s1", "Potency": "inconclusive: 35.5 µM [activator, single point]"}
{"compound": "Cc1ccc(S(=O)(=O)CCSc2nc(C)cc(C(F)(F)F)c2C#N)cc1", "Potency": "inconclusive: 12.6 µM [activator, partial curve]"}
{"compound": "COC(=O)C1=CN(CC2CCCO2)C=C(C(=O)OC)C1c1cc(OC)c(OC)c(OC)c1", "note": "(configuration not stated)", "Potency": "inactive"}
{"compound": "C[C@H](CO)N1C[C@H](C)[C@@H](CN(C)C(=O)OCc2ccccc2)OCc2cn(nn2)CCCC1=O", "Potency": "inactive"}
{"compound": "O=C(c1cc2cc(Cl)ccc2[nH]1)N1CCN(C(=O)c2ccco2)CC1", "Potency": "inconclusive: 20 µM [activator, single point]"}
{"compound": "CC(NC(=O)CCl)c1ccc(Cl)c(Cl)c1", "note": "(configuration not stated)", "Potency": "inconclusive: 10 µM [activator, partial curve]"}
{"compound": "CC(C)CC(=O)Nc1cccc(-c2nc3ccccc3[nH]2)c1", "Potency": "inactive"}
{"compound": "Fc1cccc(Cc2c(-c3ccco3)nc3c(Cl)cc(C(F)(F)F)cn23)c1", "Potency": "inconclusive: 15.8 µM [activator, partial curve, poor fit]"}
{"compound": "O=C1C(N2CCOCC2)=Cc2cccc3cccc1c23", "Potency": "inconclusive: 22.4 µM [activator, single point]"}
{"compound": "COc1cc(/C=N/Nc2cccc3cccnc23)cc(OC)c1O", "Potency": "inconclusive: 22.4 µM [activator, single point]"}
{"compound": "Cc1cccc2nc3c(nc12)-c1ccccc1C3=O", "Potency": "inconclusive: 1.78 µM [activator, full curve, poor fit]"}
{"compound": "Cc1cc(F)ccc1C(O)c1ncc(-c2cccc(F)c2)[nH]1", "note": "(configuration not stated)", "activation": "inactive: 0.446% [at 9.22 µM]"}
{"compound": "Cn1cnc2nc(Cl)nc(Cl)c21", "Potency": "inconclusive: 15.8 µM [activator, partial curve, poor fit]"}
{"compound": "O=C(Nc1ccccc1)OCCN1CCOCC1", "Potency": "inactive"}
{"compound": "O=C(NCc1ccco1)c1cccnc1-c1nc2ccccc2s1", "Potency": "inconclusive: 6.31 µM [activator, partial curve]"}
{"compound": "Fc1cccc(Nc2nc3ccccc3n3cnnc23)c1", "Potency": "inconclusive: 2.82 µM [activator, full curve, poor fit]"}
{"compound": "COc1ccc(OC)c(NC(=O)C(C#N)=Cc2ccco2)c1", "Potency": "inconclusive: 7.08 µM [activator, partial curve, poor fit]"}
{"compound": "CCN1C(=O)/C(=C/c2ccc(C)o2)N(C)C1=S", "Potency": "inconclusive: 15.8 µM [activator, single point]"}
{"compound": "COc1ccc(/C=C/C(=O)c2ccc(O)cc2)cc1", "Potency": "inconclusive: 31.6 µM [activator, single point]"}
{"compound": "C=CCNc1nc2c3ccccc3n(C(C)=O)c2s1", "Potency": "inconclusive: 20 µM [activator, partial curve, poor fit]"}
{"compound": "O=C(NCCc1ccc(F)cc1)c1cc(=O)c2ccccc2o1", "Potency": "inconclusive: 12.6 µM [activator, partial curve]"}
{"compound": "Cc1ccc(C(C[N+](=O)[O-])Sc2ccc(N)cc2)cc1", "note": "(configuration not stated)", "Potency": "inconclusive: 31.6 µM [activator, single point]"}
{"compound": "COc1cccc(C#CC2=CC(=O)CC(C)(C)C2)c1", "Potency": "inconclusive: 17.8 µM [activator, partial curve, poor fit]"}
{"compound": "O=C(/C=C/c1ccco1)Nc1cccnc1Cl", "Potency": "inconclusive: 0.794 µM [activator, full curve, poor fit]"}
{"compound": "COc1ccc(C(=O)/C=C/c2ccc(OC(=O)c3cc(OC)c(OC)c(OC)c3)cc2)cc1", "Potency": "inconclusive: 5.01 µM [activator, single point]"}
{"compound": "Cc1cc2c(c(N)n1)c(=O)oc1ccccc12", "Potency": "inactive"}
{"compound": "Cc1ccc2occ(C(=O)c3ccco3)c(=O)c2c1", "Potency": "active: 12.6 µM"}
{"compound": "COc1ccc(S(=O)(=O)N2N=C(c3cccc(NS(C)(=O)=O)c3)CC2c2ccco2)cc1", "note": "(configuration not stated)", "Potency": "inactive"}
{"compound": "CCCc1cc(C(=O)Nc2cc(OC)ccc2OC)cs1", "Potency": "inconclusive: 17.8 µM [activator, single point]"}
{"compound": "O=C(Nc1ccc(Cl)c(-c2nc3cc(Cl)ccc3o2)c1)c1cc2ccccc2o1", "Potency": "inconclusive: 15.8 µM [activator, partial curve, poor fit]"}
{"compound": "COC(=O)CSc1nc2ccccn2c(=O)c1C=O", "Potency": "inconclusive: 3.16 µM [activator, full curve, poor fit]"}
{"compound": "COc1cccc(Nc2nc3ccc(C(=O)c4ccccc4)cc3n3c(C)nnc23)c1", "Potency": "inactive"}
{"compound": "COc1ccc(/C=C/C(=O)c2ccc(Cl)s2)cc1O", "Potency": "inconclusive: 25.1 µM [activator, single point]"}
{"compound": "CCc1ccc(NC(=O)N2CC=C(c3c[nH]c4ccccc34)CC2)cc1", "Potency": "inactive"}
{"compound": "Fc1ccccc1/C=N/Nc1ncnc2ccccc12", "Potency": "inconclusive: 3.16 µM [activator, single point]"}
{"compound": "Cc1cc(C(=O)Nc2ccccc2Cl)c2ccccc2n1", "Potency": "inconclusive: 11.2 µM [activator, partial curve]"}
{"compound": "CCn1c(Oc2ccc(F)cc2F)nc2c1c(=O)n(C)c(=O)n2C", "Potency": "inactive"}
{"compound": "NC(=O)c1ccc(NC(=O)COC(=O)/C=C/c2cccs2)cc1", "Potency": "inconclusive: 11.2 µM [activator, single point]"}
{"compound": "COCCn1c(C)cc(O)c(C(c2ccccc2)N2CCN(c3ccc(F)cc3)CC2)c1=O", "note": "(configuration not stated)", "Potency": "inactive"}
{"compound": "O=[N+]([O-])c1ccccc1N/N=C\\c1ccccc1Cl", "Potency": "active: 10 µM"}
{"compound": "COc1ccccc1C=NNc1ccc([N+](=O)[O-])cn1", "Potency": "inactive"}
{"compound": "CCOC(=O)/C=C/C(=O)Nc1nccs1", "Potency": "inconclusive: 12.6 µM [activator, partial curve]"}
{"compound": "O=C(Nc1ccccc1)NN(C(=O)CCl)c1ccccc1", "Potency": "inconclusive: 3.55 µM [activator, single point]"}
{"compound": "Cc1ccsc1C(=O)N/N=C/c1ccc2c(c1)OCO2", "Potency": "inactive"}
{"compound": "CC(=O)N1CCc2c(sc(NC(=O)c3ccc([N+](=O)[O-])o3)c2C#N)C1", "Potency": "inconclusive: 2 µM [activator, partial curve, poor fit]"}
{"compound": "O=Nc1ccc(O)c2ncccc12", "Potency": "inconclusive: 5.62 µM [activator, single point]"}
{"compound": "CCCCCOc1ccc(/C=C/c2c([N+](=O)[O-])c(=O)n(C)c(=O)n2C)cc1", "Potency": "inconclusive: 12.6 µM [activator, partial curve, poor fit]"}
{"compound": "C=CCn1c(O)c(N=Nc2ccccc2[N+](=O)[O-])c2ccccc21", "Potency": "inconclusive: 0.501 µM [activator, full curve, poor fit]"}
{"compound": "Cc1ccc(/C=C/C(=O)N2CCc3ccccc32)o1", "Potency": "active: 11.2 µM"}
{"compound": "CCCn1c2ccccc2c2cnn(CC(=O)Nc3ccccc3OC)c(=O)c21", "Potency": "inactive"}
{"compound": "COc1ccc(Cc2cc(NCc3ccccc3)c3ncn(C(C)C)c3c2)cc1", "Potency": "inactive"}
{"compound": "COc1ccc(C=C2C=C(C(C)(C)C)C(=O)C(C(C)(C)C)=C2)cc1OC", "Potency": "inconclusive: 35.5 µM [activator, single point]"}
{"compound": "CCOC(=O)/C(C#N)=C/NC(=O)NC(C)(C)C", "Potency": "inactive"}
{"compound": "O=C(CCN1CCCCC1)c1cccc(Cl)c1", "Potency": "inconclusive: 35.5 µM [activator, single point]"}
{"compound": "CCc1nc(Sc2nc(C)cc(C)n2)c2oc3ccccc3c2n1", "Potency": "inconclusive: 17.8 µM [activator, partial curve, poor fit]"}
